# Whole data set: some 33,000 sequences, median “E-score (-0.5 to 0.5)” near -0.012, cut for the highest 2% near 0.29. This is one part of the list.
# Molecular target: T1, Ybr033w (UniProt P38073)
# T1 sequence: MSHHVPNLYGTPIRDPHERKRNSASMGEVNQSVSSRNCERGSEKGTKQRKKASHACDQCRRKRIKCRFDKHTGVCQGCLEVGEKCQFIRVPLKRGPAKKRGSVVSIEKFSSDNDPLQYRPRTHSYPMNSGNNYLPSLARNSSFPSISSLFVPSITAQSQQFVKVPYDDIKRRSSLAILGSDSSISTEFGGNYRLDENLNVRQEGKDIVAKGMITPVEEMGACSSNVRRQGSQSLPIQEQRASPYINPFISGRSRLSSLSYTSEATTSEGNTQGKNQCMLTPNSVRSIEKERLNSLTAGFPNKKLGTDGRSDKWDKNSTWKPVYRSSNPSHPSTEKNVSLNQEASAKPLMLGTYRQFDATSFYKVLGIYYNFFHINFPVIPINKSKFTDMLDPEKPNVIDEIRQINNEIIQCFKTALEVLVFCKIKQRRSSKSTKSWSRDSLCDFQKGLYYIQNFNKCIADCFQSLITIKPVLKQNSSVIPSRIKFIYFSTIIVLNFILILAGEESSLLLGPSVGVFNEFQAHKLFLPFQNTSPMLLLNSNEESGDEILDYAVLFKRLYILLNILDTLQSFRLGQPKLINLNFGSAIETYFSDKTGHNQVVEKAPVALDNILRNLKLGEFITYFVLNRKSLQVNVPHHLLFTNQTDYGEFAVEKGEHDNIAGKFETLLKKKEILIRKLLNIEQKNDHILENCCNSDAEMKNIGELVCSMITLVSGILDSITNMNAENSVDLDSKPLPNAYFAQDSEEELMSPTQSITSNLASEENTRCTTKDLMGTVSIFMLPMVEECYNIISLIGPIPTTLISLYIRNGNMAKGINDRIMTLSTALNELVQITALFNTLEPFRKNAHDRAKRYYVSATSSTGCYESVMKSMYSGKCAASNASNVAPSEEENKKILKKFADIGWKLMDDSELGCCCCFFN
# Test: PBM E-score (8-mer binding enrichment) (E-score (-0.5 to 0.5)); higher = stronger / more preferred TF binding; most listed sequences are background and not binding sites
# Settings: protein concentration: 200 nM; construct: GST-full length
# Summary of the method: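 PURExpress in vitro transcription/translation supplied GST-tagged yeast transcription factors, either full-length or DNA-binding domain. Applied at about 100-200 nM to universal all-10-mer Agilent arrays double-stranded by primer extension, the bound protein was detected with fluorescent anti-GST. E-scores, modified Wilcoxon-Mann-Whitney statistics, were given by the Universal PBM Analysis Suite to ungapped eight-base words pooled with their reverse complements after masliner normalisation.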
row,Sequence,PBM E-score
1,CCGAGCAC,-0.0526
2,AGAAGGCA,-0.0967
3,TAACTATA,0.242
4,GCGGCAGC,-0.239
5,GCCCAGGA,-0.0995
6,AATCGAAT,0.151
7,GACTAGCA,-0.00618
8,CTTTAGAA,0.0277
9,ACGTAGGA,0.0553
10,ACGCTGTA,0.0471
11,CTATAATC,0.239
12,CTGCCGCA,-0.208
13,ATCCGACA,0.0298
14,CGTGACAG,-0.145
15,CACCACAC,0.0283
16,CAACATTG,0.0622
17,CCGAAGCA,0.0595
18,AGCGCGGG,-0.0708
19,ATCTGCAC,-0.162
20,GCTGGATA,0.142
21,CATGTAGA,0.123
22,GACTTTCC,0.0496
23,AGACGATG,-0.113
24,GATGCCAC,-0.0736

row,Sequence,PBM E-score
1,GGTGTATA,-0.146
2,ACCTTAAC,0.0325
3,AGTTTCGC,0.0944
4,AACCGTCC,-0.211
5,ATTAAGAG,0.163
6,ACCAGCCC,-0.049
7,CACTAGTA,0.0533
8,GACTTACA,0.011
9,GCGGTGCC,-0.403
10,GATGCCTA,-0.0483
11,CAGTGGGG,-0.256
12,GAGGAAAC,0.0646
13,TAAATCGA,0.187
14,ACCAGGCC,-0.119
15,CCCGCTAA,-0.192
16,ACCTATAA,0.0203
17,AACAGATA,0.096
18,ATCGAGTC,0.0943
19,CTGCTGTC,-0.046
20,GCGTCCTA,-0.287
21,CCCGGCCG,-0.279
22,CAAAGCCA,0.109
23,GGGTACCC,-0.44
24,CATACATC,0.137

row,Sequence,PBM E-score
1,CCCAGCAC,-0.195
2,AATACTGG,0.0445
3,CATATCAG,0.0658
4,GATTGCGA,0.0845
5,AGATTCTG,-0.0373
6,CGGTTGAC,0.0343
7,CGTAAAGA,-0.0435
8,CTGCTAGA,-0.0174
9,CAGACCCA,-0.203
10,ATACGGGA,0.0278
11,CGATTGAC,0.0187
12,CCTATATA,0.125
13,ACCCGACA,-0.0502
14,ACGCCAGA,-0.011
15,CAAGCTAA,-0.0334
16,AGACTCCG,-0.0353
17,CGCGGTGC,-0.269
18,AAACAGTG,0.103
19,ATCCACAT,0.224
20,AGGGGAGG,-0.0285
21,CAACTTCG,0.0356
22,AATATTTG,0.232
23,AGCGTCCA,-0.13
24,CTTCCTGA,0.281

row,Sequence,PBM E-score
1,GAATTAGC,0.041
2,AACACACA,0.178
3,TGCGCAAA,-0.00319
4,AAAGTAAT,0.203
5,AGAAGTAC,-0.085
6,GAGATCAC,-0.0288
7,TCACAGCA,0.0204
8,GTCGTGAA,-0.0309
9,TGCCAGCA,-0.023
10,GCGGTACC,-0.167
11,CTTGTTCA,-0.0165
12,ACAGTGGG,-0.021
13,AAAGTATA,0.249
14,CCGTACGG,-0.219
15,ATAACGAA,0.229
16,CAAGGTTA,0.0697
17,CAGACCAA,0.0179
18,ACCTCCGC,-0.243
19,CAAGCACA,-0.0197
20,AATAATTG,0.256
21,AGCGACCG,-0.0457
22,AACGGCGG,-0.302
